Assay results published in US20250213711A1, “ANTI-CANAG ANTIBODY CONJUGATE” (IKSUDA THERAPEUTICS LIMITED, priority 2022, published 2025).
“Also recorded” adds a separate entry of the source.

Key:
[1] = tested on: CanAg positive Colo205 cells; assay: Flow cytometry (FACS) binding of humanised antibodies to Colo205 cells; set-up: species or system human; conditions: for Binding EC50 (μg/ml) MFI curve: 4° C. 60 minutes
Procedure: The affinity of the nine humanised antibody combinations for CanAg positive Colo205 cells was evaluated by flow cytometry as follows. 20×10^5 Colo205 cells were aliquoted per well and washed once with FACS buffer (2% FBS in PBS). Humanised antibodies and isotype control antibodies (Anti-HEL-Human-IgG1 (N297A), catalog: B109801, brand: BIOINTRON) were diluted with FACS buffer diluted (8 concentrations starting at 100 μg/ml with 2-fold dilutions), then 100 μL was added to each well with cells. Cells were incubated at 4° C. for 60 minutes followed by washing with FACS buffer twice. Secondary antibody AF488 Goat anti-human IgG (H+L) (catalog: A11013, brand: Invitrogen) was diluted 1:1000 with FACS buffer, then 100 uL added to each well and incubated at 4° C. for 30 minutes. After the incubation, cells were re-suspended in 200 uL FACS buffer for flow cytometry analysis. MFI (mean fluorescence intensity) was used to calculate EC50.

Colo-205 cells = assay: Cell Titre-Glo (CTG) in vitro activity assay, Colo-205; type: cell-based, human; conditions: 72 h, 20% heat inactivated FBS (FIG. 11)
Source text: The ADC non-binding control was an anti-CD19 ADC (DAR 2.0) composed of the same linker-drug combination as ADC-3.

HT-29 cells = assay: Cell Titre-Glo (CTG) in vitro activity assay, HT-29; type: cell-based, human; conditions: 72 h (FIG. 13)
Procedure: (§1) In vitro activity was assessed using the luminescence-based Cell Titre-Glo (CTG) assay (Promega, No: G7572), which quantitates the amount of ATP present as a measure of viable cells. Specificity of cell killing was shown by incubating cells with a non-binding ADC control composed of the same payload.
(§2) Anti-CanAg ADC in vitro activity was evaluated in the colorectal cancer cell lines, Colo-205 (ATCC: CCL-222) and HT-29 (ATCC: HTB-38), the pancreatic adenocarcinoma cell line, BxPC-3 (ATCC: CRL-1687), and N87 gastric carcinoma (ATCC: CRL-5822). The ADC non-binding control was an anti-CD19 ADC (DAR 2.0) composed of the same linker-drug combination as ADC-3.
(§3) Cells were trypsinised and seeded to 96 well microplates in appropriate complete medium (Colo-205, BxPC-3 and N87-RPMI-1640 with 20% heat inactivated fetal bovine serum (FBS); HT-29-McCoy's-5A medium with 20% heat inactivated FBS) for 24 h at 37° C., 5% CO2. Cells were seeded at density of 4000 (Colo-205) or 5000 (BxPC-3, HT-29, N87) cells per well, in a volume of 100 μL. […]
(§4) For the comparison of ADC-3 with Cantuzumab ravtansine and a non-binding ADC control cells were trypsinised and seeded to 96 well microplates in appropriate complete medium (RPMI-1640 with 10% FBS) for 24 h at 37° C., 5% CO2. […] Then the plate was incubated for 20 minutes at RT followed by luminescence measurements.

BxPC-3 cells = assay: Cell Titre-Glo (CTG) in vitro activity assay, BxPC-3; type: cell-based, human; conditions: 72 h (FIG. 12)
Procedure: as §1, §2, §3, §4

N87 cells = assay: Cell Titre-Glo (CTG) in vitro activity assay, N87; type: cell-based, human; conditions: 72 h (FIG. 14)
Procedure: as §1, §2, §3, §4

Colo-205 xenograft = conditions: single intravenous dose 1 mg/kg
Procedure: Mice were subcutaneously inoculated into the right flank with 5×10^6 Colo-205 cells in 0.2 mL of DPBS mixed 1:1 with BD Matrigel. […] Tumour size was measured thrice weekly in two dimensions using a calliper, and the volume was expressed in mm^3 using the formula: V=0.5 a×b^2 where a and b are the long and short diameters of the tumour, respectively (see FIGS. 17A, 18 A and 19 A). The tumour size was then used for calculations of TGI (%) values (see Table 5). TGI, representing antitumor effectiveness, were calculated using the formula TGI (%)=[1-(Vtreat-t−Vtreat-1)/(Vcontrol-t−Vcontrol-1)]×100, where Vtreat-1 and Vcontrol-1 are the mean volumes of the treated and control groups on grouping day; Vtreat-t and Vcontrol-t are the mean volumes of the treated and control groups on a given day. Animals were euthanized when tumour volumes reached 2000 mm^3. Body weight was also measured thrice weekly as a measure of compound toxicity (see FIGS. 17 B, 18 B and 19 B).

BxPC3 xenograft = assay: In vivo efficacy study in BxPC3 xenograft model; set-up: species or system mice; conditions: day 29
Procedure: Conjugate doses of 0.4 mg/kg (5.3 nmol of conjugated drug/kg), 1 mg/kg (13 nmol of conjugated drug/kg) for ADC-2 and ADC-3, and 0.2 mg/kg (5.3 nmol of conjugated drug/kg) and 0.5 mg/kg (13 nmol of conjugated drug/kg) for Cantuzumab ravtansine were used.

Row | Molecule | affinity for CanAg positive Colo205 cells (in words) [1] | Binding EC50 (μg/ml) MFI curve [1] [µg/mL] | cell killing (Colo-205 cells) [%] | cell killing (HT-29 cells) [%] | cell killing (BxPC-3 cells) [%] | in vitro activity on N87 cells (in words) (N87 cells) | toxicity (body weight) (Colo-205 xenograft; Colo-205 xenograft mice) | TGI [%] at 15 day (Colo-205 xenograft; Colo-205 xenograft, CB17 SCID mice, day 15) [%] | TGI [%] at 29 or 32* day (BxPC3 xenograft; single intravenous dose 0.4 mg/kg (5.3 nmol/kg)) [%] | TGI [%] at 29 or 32* day (BxPC3 xenograft; single intravenous dose 1 mg/kg (13 nmol/kg)) [%]
1 | HC1 + LC1: humanised anti-CanAg (C242) antibody, heavy chain HC1 (SEQ ID NO 5) and light chain LC1 (SEQ ID NO 8) (antibody) heavy: QVQLVQSGAEVKKPGASVKVSCKASDYTFTYYGINWVRQAPGQGLEWMGWIDTTTGEPNYAQKLQGRVTFTLDTSASTAYMELRSLRSDDTAVYYCARRGPYNWYFDVWGQGTLVTVSS[human IgG1 constant region not shown] light: DIVMTQTPLSLPVTPGEPASISCRSSKSLLHSNGNTYLYWYLQKPGQSPQLLIYRMSNRASGVPDRFSGSGSGTDFTLKISRVEAEDVGVYYCLQHLEYPFTFGPGTKVDIKRTVAAPSVFIFPPSDEQLKSGTASVVCLLNNFYPREAKVQWKVDNALQSGNSQESVTEQDSKDSTYSLSSTLTLSKADYEKHKVYACEVTHQGLSSPVTKSFNRGEC | comparable affinity | 0.2737 | – | – | – | – | – | – | – | –
2 | HC2 + LC1: humanised anti-CanAg (C242) antibody, heavy chain HC2 (SEQ ID NO 6) and light chain LC1 (SEQ ID NO 8) (antibody) heavy: QVQLVQSGAEVKKPGASVKVSCKASDYTFTYYGMNWVRQAPGQGLEWMGWIDTTTGEPSYAQKFQGRVTFTLDTSASTVYMELSSLRSEDTAVYYCARRGPYNWYFDVWGQGTLVTVSS[human IgG1 constant region not shown] light: DIVMTQTPLSLPVTPGEPASISCRSSKSLLHSNGNTYLYWYLQKPGQSPQLLIYRMSNRASGVPDRFSGSGSGTDFTLKISRVEAEDVGVYYCLQHLEYPFTFGPGTKVDIKRTVAAPSVFIFPPSDEQLKSGTASVVCLLNNFYPREAKVQWKVDNALQSGNSQESVTEQDSKDSTYSLSSTLTLSKADYEKHKVYACEVTHQGLSSPVTKSFNRGEC | comparable affinity | 0.3506 | – | – | – | – | – | – | – | –
3 | HC3 + LC1: humanised anti-CanAg (C242) antibody, heavy chain HC3 (SEQ ID NO 7) and light chain LC1 (SEQ ID NO 8) (antibody) heavy: QVQLVQSGAEVKKPGASVKVSCKASDYTFTYYGINWVRQATGQGLEWMGWIDTTTGEPTYAQKFQGRVTFTLETSISTAYMELSSLRSEDTAVYYCARRGPYNWYFDVWGAGTLVTVSS[human IgG1 constant region not shown] light: DIVMTQTPLSLPVTPGEPASISCRSSKSLLHSNGNTYLYWYLQKPGQSPQLLIYRMSNRASGVPDRFSGSGSGTDFTLKISRVEAEDVGVYYCLQHLEYPFTFGPGTKVDIKRTVAAPSVFIFPPSDEQLKSGTASVVCLLNNFYPREAKVQWKVDNALQSGNSQESVTEQDSKDSTYSLSSTLTLSKADYEKHKVYACEVTHQGLSSPVTKSFNRGEC | comparable affinity | 0.2664 | – | – | – | – | – | – | – | –
4 | ADC-2 (conjugate) heavy: QVQLVQSGAEVKKPGASVKVSCKASDYTFTYYGINWVRQAPGQGLEWMGWIDTTTGEPNYAQKLQGRVTFTLDTSASTAYMELRSLRSDDTAVYYCARRGPYNWYFDVWGQGTLVTVSS[human IgG1 constant region not shown] light: DIVMTQTPLSLPVTPGEPASISCRSSKSLLHSNGNTYLYWYLQKPGQSPQLLIYRMSNRASGVPDRFSGSGSGTDFTLKISRVEAEDVGVYYCLQHLEYPFTFGPGTKVDIKRTVAAPSVFIFPPSDEQLKSGTASVVCLLNNFYPREAKVQWKVDNALQSGNSQESVTEQDSKDSTYSLSSTLTLSKADYEKHKVYACEVTHQGLSSPVTKSFNRGECGGGGGGGCVIM | – | – | 100 | 100 | 100 | very limited activity; also recorded: no specific activity | no observable toxicity | 103 | 66.7 | 107
